# Out of some 3,200 compounds screened, about 110 (3.4%) showed an effect of 50% or more. The list shows a part of the results.
# Tested on: T1, V. cholerae SAD30
# T1 construct: SAD30
# Design: species or system S. aureus MSSA476 (TSB) or V. cholerae SAD30 (LB); 384-well bacterial growth screen at 25 uM, OD600 relative to DMSO control
# Conditions: relative growth, OD600, LB; 25 µM; inhibitor
row,SMILES,% of control remaining
1,"CC(Cl)C(=O)c1ccc(F)c(F)c1 (stereo not drawn) [10-A17, 2-chloro-1-(3,4-difluorophenyl)propan-1-one]",103.955%
2,"COc1ccc(NC(=O)N2CCSSCC2)cc1 [10-H21, N-(4-methoxyphenyl)-1,2,5-dithiazepane-5-carboxamide]",99.7467%
3,"CC(Cl)C(=O)NC(C)C(c1ccccc1Cl)n1cccn1 (stereo not drawn) [6-P09, 2-chloro-N-[1-(2-chlorophenyl)-1-(1H-pyrazol-1-yl)propan-2-yl]propanamide]",96.9191%
4,"N#Cc1ccc(C(=O)CCl)cc1 [10-F10, 4-(2-chloroacetyl)benzonitrile]",0%
5,"CC(Cl)C(=O)NCCc1ccc(F)cc1 (stereo not drawn) [6-F06, 2-chloro-N-[2-(4-fluorophenyl)ethyl]propanamide]",86.757%
6,"C=CC(=O)NCCC(=O)N1CCSC(C)CC1 (stereo not drawn) [2-K08, N-[3-(7-methyl-1,4-thiazepan-4-yl)-3-oxopropyl]prop-2-enamide]",87.5712%
7,"COc1ccc(C=C(C#N)C(=O)NCc2ccccc2)cc1O [8-C09, N-benzyl-2-cyano-3-(3-hydroxy-4-methoxyphenyl)prop-2-enamide]",76.4786%
8,"C=C(Cl)CN(C(=O)CCl)C1CCc2ccccc21 (stereo not drawn) [7-B18, 2-chloro-N-(2-chloroprop-2-en-1-yl)-N-(2,3-dihydro-1H-inden-1-yl)acetamide]",83.0002%
9,"COc1ccc(NC(=O)C(C#N)=Cc2cccc(O)c2)cc1OC [8-F09, 2-cyano-N-(3,4-dimethoxyphenyl)-3-(3-hydroxyphenyl)prop-2-enamide]",76.2067%
10,"C=CC(=O)N1CCc2[nH]cnc2C1c1ccnn1C (stereo not drawn) [3-A07, 1-[4-(1-methyl-1H-pyrazol-5-yl)-1H,4H,5H,6H,7H-imidazo[4,5-c]pyridin-5-yl]prop-2-en-1-one]",120.32%
11,"Cc1ccccc1NC(=O)C(C#N)=Cc1ccc2c(c1)OCCO2 [8-J03, 2-cyano-3-(2,3-dihydro-1,4-benzodioxin-6-yl)-N-(2-methylphenyl)prop-2-enamide]",92.1142%
12,"N#CC(=Cc1ccc(Cl)cc1)C(=O)Nc1ccncc1 [8-K20, 3-(4-chlorophenyl)-2-cyano-N-(pyridin-4-yl)prop-2-enamide]",74.4392%
13,"C=CC(=O)N1CCCC1c1cc(C)no1 (stereo not drawn) [3-G12, 1-[2-(3-methyl-1,2-oxazol-5-yl)pyrrolidin-1-yl]prop-2-en-1-one]",90.8546%
14,"CC(C)Oc1ccccc1C=C(C#N)C(=O)Nc1cccc(Cl)c1 [9-P20, N-(3-chlorophenyl)-2-cyano-3-[2-(propan-2-yloxy)phenyl]prop-2-enamide]",84.0925%
15,"O=C(CCl)N1CC(Cc2ccc(F)cc2F)C1 [5-G20, 2-chloro-1-{3-[(2,4-difluorophenyl)methyl]azetidin-1-yl}ethan-1-one]",89.2718%
16,"CN(CCNC(=O)CCl)S(=O)(=O)c1cccs1 [6-H11, 2-chloro-N-[2-(N-methylthiophene-2-sulfonamido)ethyl]acetamide]",70.3763%
17,"COc1ccc(S(=O)(=O)N(C)C)cc1NC(=O)CCl [4-E05, 2-chloro-N-[5-(dimethylsulfamoyl)-2-methoxyphenyl]acetamide]",103.86%
18,"CC(C)N1C(=O)C[C@H](NC(=O)CCl)[C@H]1c1ccc(Cl)c(F)c1 (racemic) [5-I11, rac-2-chloro-N-[(2R,3S)-2-(4-chloro-3-fluorophenyl)-5-oxo-1-(propan-2-yl)pyrrolidin-3-yl]acetamide]",97.3416%
19,"C=CC(=O)N1CCC(C(=O)N2CCc3ccccc32)CC1 [1-E09, 1-[4-(2,3-dihydro-1H-indole-1-carbonyl)piperidin-1-yl]prop-2-en-1-one]",92.5262%
20,"C=CC(=O)NC(c1ccccc1)C1CCC1 (stereo not drawn) [1-G05, N-[cyclobutyl(phenyl)methyl]prop-2-enamide]",93.8714%
21,"CC(Cl)C(=O)NC1CC=CCC1 (stereo not drawn) [6-K21, 2-chloro-N-(cyclohex-3-en-1-yl)propanamide]",96.7675%
22,"CC(Cl)C(=O)N1C2CCC1CC1(C2)CC1(F)F (stereo not drawn) [6-N18, 2-chloro-1-{2',2'-difluoro-8-azaspiro[bicyclo[3.2.1]octane-3,1'-cyclopropan]-8-yl}propan-1-one]",87.6671%
23,"N#CCCN(C(=O)CCl)c1cccc(Cl)c1 [6-A17, 2-chloro-N-(3-chlorophenyl)-N-(2-cyanoethyl)acetamide]",105.261%

row,SMILES,% of control remaining
1,"C=CC(=O)NCCC(=O)N1CCN(c2ccc(C#N)cc2F)CC1 [3-D07, N-{3-[4-(4-cyano-2-fluorophenyl)piperazin-1-yl]-3-oxopropyl}prop-2-enamide]",101.617%
2,"C=CC(=O)Nc1nn(CC(C)C)cc1Cl [2-G05, N-[4-chloro-1-(2-methylpropyl)-1H-pyrazol-3-yl]prop-2-enamide]",93.9014%
3,"C=CC(=O)NC1(c2cccc(F)c2)CCOCC1 [1-M04, N-[4-(3-fluorophenyl)oxan-4-yl]prop-2-enamide]",90.8819%
4,"COc1cc(C=C(C#N)C(=O)NC(C)C)cc(Cl)c1O [9-K11, 3-(3-chloro-4-hydroxy-5-methoxyphenyl)-2-cyano-N-(propan-2-yl)prop-2-enamide]",86.8117%
5,"O=C(CCl)N(Cc1ccnn1C1CCC1)C1CC=CCC1 (stereo not drawn) [5-I14, 2-chloro-N-[(1-cyclobutyl-1H-pyrazol-5-yl)methyl]-N-(cyclohex-3-en-1-yl)acetamide]",95.3242%
6,"Cc1ccc(Sc2ccc(NC(=O)CCl)cc2)cc1C [4-G03, 2-chloro-N-{4-[(3,4-dimethylphenyl)sulfanyl]phenyl}acetamide]",107.311%
7,"Cc1c(C#N)c(NC(=O)CCl)n(Cc2ccccc2)c1C [4-M21, N-(1-benzyl-3-cyano-4,5-dimethyl-1H-pyrrol-2-yl)-2-chloroacetamide]",99.8922%
8,"COc1ccc(C=C(C#N)C(=O)Nc2cccc3ccccc23)cc1 [9-E10, 2-cyano-3-(4-methoxyphenyl)-N-(naphthalen-1-yl)prop-2-enamide]",86.1319%
9,"Cc1ccc(C)n1C1CCC(NC(=O)CCl)CC1 (stereo not drawn) [7-F18, 2-chloro-N-[4-(2,5-dimethyl-1H-pyrrol-1-yl)cyclohexyl]acetamide]",79.1674%
10,"C=CC(=O)NCCC(=O)N1CCCC1c1cn(C)nc1C (stereo not drawn) [3-E10, N-{3-[2-(1,3-dimethyl-1H-pyrazol-4-yl)pyrrolidin-1-yl]-3-oxopropyl}prop-2-enamide]",102.323%
11,"C=CC(=O)N(Cc1ccc(Cl)o1)C1CCCC12CCOCC2 (stereo not drawn) [2-K05, N-[(5-chlorofuran-2-yl)methyl]-N-{8-oxaspiro[4.5]decan-1-yl}prop-2-enamide]",95.1365%
12,"CN(C(=O)CCl)C1CCCCC1 [5-N07, 2-chloro-N-cyclohexyl-N-methylacetamide]",100.368%
13,"Cc1ccc(N(C(=O)CCl)C2C=CS(=O)(=O)C2)cc1 (stereo not drawn) [5-K13, 2-chloro-N-(1,1-dioxo-2,3-dihydro-1lambda6-thiophen-3-yl)-N-(4-methylphenyl)acetamide]",94.6517%
14,"Cc1ccnc(-c2n[nH]c(C(C)NC(=O)C(C)Cl)n2)c1 (stereo not drawn) [7-I10, 2-chloro-N-{1-[3-(4-methylpyridin-2-yl)-1H-1,2,4-triazol-5-yl]ethyl}propanamide]",80.0925%
15,"O=C(CCl)N1N=C(c2ccc(Cl)cc2)CC1c1ccco1 (stereo not drawn) [5-L04, 2-chloro-1-[3-(4-chlorophenyl)-5-(furan-2-yl)-4,5-dihydro-1H-pyrazol-1-yl]ethan-1-one]",105.748%
16,"O=C(Nc1cccc(-c2nnco2)c1)N1CCSSCC1 [10-P09, N-[3-(1,3,4-oxadiazol-2-yl)phenyl]-1,2,5-dithiazepane-5-carboxamide]",101.149%
17,"C=CC(=O)Nc1cnn2cc(C)cnc12 [1-G19, N-{6-methylpyrazolo[1,5-a]pyrimidin-3-yl}prop-2-enamide]",89.0882%
18,"C=CC(=O)NCCC(=O)N1CCCN(c2cccnn2)CC1 [2-P16, N-{3-oxo-3-[4-(pyridazin-3-yl)-1,4-diazepan-1-yl]propyl}prop-2-enamide]",95.7541%
19,"C=CC(=O)N(Cc1cnc(C2CC2)o1)C1CCCCC1C (stereo not drawn) [1-D15, N-[(2-cyclopropyl-1,3-oxazol-5-yl)methyl]-N-(2-methylcyclohexyl)prop-2-enamide]",85.3513%
20,"CN1C(=O)[C@H](NC(=O)CCl)COc2ccccc21 [7-D04, 2-chloro-N-[(3R)-5-methyl-4-oxo-2,3,4,5-tetrahydro-1,5-benzoxazepin-3-yl]acetamide]",93.1769%
21,"C=CC(=O)N(Cc1ccc2cnn(C)c2c1)CC(C)(C)C [2-O05, N-(2,2-dimethylpropyl)-N-[(1-methyl-1H-indazol-6-yl)methyl]prop-2-enamide]",100.077%
22,"CC(NC(=O)C(C#N)=Cc1ccccc1F)c1ccccc1 (stereo not drawn) [8-P16, 2-cyano-3-(2-fluorophenyl)-N-(1-phenylethyl)prop-2-enamide]",78.1101%
